{"source": "paper PMC4336329", "about": "(PLoS ONE, 2015)", "note": "The whole screen tested about 310,000 compounds, of which about 14,000 (4.5%) showed an effect of 50% or more. The effect is printed as a negative number. Some of the results follow.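 Note: peak tail current of the secondary pulse compared with the same well before compound.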"}
{"molecular_target": "human ether-à-go-go-related gene (hERG) potassium channel (human, UniProt Q12809)", "sequence (Q12809 whole entry, looked up)": "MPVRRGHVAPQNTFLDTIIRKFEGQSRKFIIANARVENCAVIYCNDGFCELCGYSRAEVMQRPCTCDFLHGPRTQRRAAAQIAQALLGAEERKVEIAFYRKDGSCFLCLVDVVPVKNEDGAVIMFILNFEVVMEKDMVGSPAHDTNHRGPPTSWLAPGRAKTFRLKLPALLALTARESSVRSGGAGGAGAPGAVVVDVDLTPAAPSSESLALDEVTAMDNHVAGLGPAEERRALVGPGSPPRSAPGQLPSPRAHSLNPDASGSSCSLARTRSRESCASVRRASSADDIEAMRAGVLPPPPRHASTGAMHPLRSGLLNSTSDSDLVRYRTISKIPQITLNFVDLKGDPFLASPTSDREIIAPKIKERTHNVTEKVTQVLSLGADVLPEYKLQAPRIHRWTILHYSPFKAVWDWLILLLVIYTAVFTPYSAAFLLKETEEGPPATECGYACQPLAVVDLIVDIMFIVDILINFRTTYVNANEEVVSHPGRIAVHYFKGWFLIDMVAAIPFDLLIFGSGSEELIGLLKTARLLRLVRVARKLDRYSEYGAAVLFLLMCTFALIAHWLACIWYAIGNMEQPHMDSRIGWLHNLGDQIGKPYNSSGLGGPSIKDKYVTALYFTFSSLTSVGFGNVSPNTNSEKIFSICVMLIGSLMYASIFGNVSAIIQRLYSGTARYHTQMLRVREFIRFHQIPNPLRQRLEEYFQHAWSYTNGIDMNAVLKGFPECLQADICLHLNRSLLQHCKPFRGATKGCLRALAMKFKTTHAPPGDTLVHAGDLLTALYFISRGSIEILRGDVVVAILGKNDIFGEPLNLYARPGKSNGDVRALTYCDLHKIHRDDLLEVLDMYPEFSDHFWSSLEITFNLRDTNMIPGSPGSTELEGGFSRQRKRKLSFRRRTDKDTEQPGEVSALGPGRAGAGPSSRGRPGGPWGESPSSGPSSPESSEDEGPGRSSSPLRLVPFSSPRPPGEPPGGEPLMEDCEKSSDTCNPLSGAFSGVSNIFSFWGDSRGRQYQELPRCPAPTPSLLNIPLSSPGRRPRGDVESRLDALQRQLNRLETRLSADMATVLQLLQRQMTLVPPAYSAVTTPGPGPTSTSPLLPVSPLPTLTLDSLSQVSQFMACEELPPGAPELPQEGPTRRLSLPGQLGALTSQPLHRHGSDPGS", "test": "primary screen, population patch clamp on CHO cells stably expressing hERG", "units": {"hERG current change (%, negative = inhibition) at 10uM": "%"}}
{"smiles": "CSc1nc(Oc2ccc(Cl)cc2)c2sccc2n1", "hERG current change (%, negative = inhibition) at 10uM": 13.5}
{"smiles": "CCCCNC(=S)N(CCO)Cc1cc2cc3c(cc2[nH]c1=O)OCCO3", "hERG current change (%, negative = inhibition) at 10uM": 8.09}
{"smiles": "CCOC(C[n+]1c(-c2ccccc2)cc(C)cc1-c1ccccc1)OCC.[O-][Cl+3]([O-])([O-])[O-]", "hERG current change (%, negative = inhibition) at 10uM": 3.9}
{"smiles": "OCCCNc1nc(-c2ccc(Cl)cc2)nnc1-c1ccc(Br)cc1", "hERG current change (%, negative = inhibition) at 10uM": -61.5}
{"smiles": "Cc1ccc2[nH]c(=O)c(CN(CCCN(C)C)C(=S)NCCc3ccccc3)cc2c1", "hERG current change (%, negative = inhibition) at 10uM": -42}
{"smiles": "COc1ccccc1-n1c(SCC(=O)Nc2ccc(F)cc2)nc2c(c1=O)SCC2", "hERG current change (%, negative = inhibition) at 10uM": -5.18}
{"smiles": "Cc1ccc(C(=O)Nc2ccc(Cc3ccncc3)cc2)cc1[N+](=O)[O-]", "hERG current change (%, negative = inhibition) at 10uM": -19.6}
{"smiles": "CCC1(c2ccccc2)NC(=O)N(CC(=O)Nc2ccc(S(=O)(=O)NC3=NCCCCC3)cc2)C1=O", "note": "(stereo not drawn)", "hERG current change (%, negative = inhibition) at 10uM": 22.5}
{"smiles": "COC(=O)CSc1nc2ccc(NC(C)=O)cc2s1", "hERG current change (%, negative = inhibition) at 10uM": 13.4}
{"smiles": "COc1ccc(NC(=O)CN(C)C(=O)c2sc3cc(Cl)ccc3c2Cl)cc1", "hERG current change (%, negative = inhibition) at 10uM": -3.61}
{"smiles": "CCn1nc(NC(=O)c2ccncc2)c2cc3ccc(C)cc3nc21", "hERG current change (%, negative = inhibition) at 10uM": -3.96}
{"smiles": "CCOP(=O)(OCC)C(NC(=O)c1ccc(C)cc1)C(Cl)(Cl)Cl", "note": "(stereo not drawn)", "hERG current change (%, negative = inhibition) at 10uM": -2.08}
{"smiles": "O=c1c2cccnc2[nH]c(=S)n1Cc1ccccc1", "hERG current change (%, negative = inhibition) at 10uM": 21.1}
{"smiles": "Cc1cc(C)c(S(=O)(=O)Nc2cccc(/C=C/C(=O)O)c2)c(C)c1", "hERG current change (%, negative = inhibition) at 10uM": 0.779}
{"smiles": "Cc1c(C(=O)Nc2ccc(C(=O)O)cc2)cnn1C", "hERG current change (%, negative = inhibition) at 10uM": 17.5}
{"smiles": "Cc1ccc2c(c1)c1ncnc(N3CCc4ccccc4C3)c1n2C", "hERG current change (%, negative = inhibition) at 10uM": 0.68}
{"smiles": "COc1ccccc1CNCC(O)(c1ccc(Cl)cc1)c1ccc(Cl)cc1", "hERG current change (%, negative = inhibition) at 10uM": -13.7}
{"smiles": "Cc1[nH]c(=O)[nH]c(=O)c1S(=O)(=O)N1CCCC(C(=O)NCc2ccc3c(c2)OCO3)C1", "note": "(stereo not drawn)", "hERG current change (%, negative = inhibition) at 10uM": 18}
{"smiles": "O=c1oc2ccc3ccccc3c2cc1-c1nnc(-c2ccccc2)o1", "hERG current change (%, negative = inhibition) at 10uM": 13.5}
{"smiles": "COc1ccc(CN2C(=O)c3cccnc3C2=O)cc1S(=O)(=O)NCc1ccco1", "hERG current change (%, negative = inhibition) at 10uM": 18.1}
{"smiles": "CC1CCc2cc(F)ccc2N1C(=O)CN1C(=O)c2ccccc2C1=O", "note": "(stereo not drawn)", "hERG current change (%, negative = inhibition) at 10uM": -2.92}
{"smiles": "Cc1ccccc1NC(=O)NCCCN1CCCC1=O", "hERG current change (%, negative = inhibition) at 10uM": 22.8}
{"smiles": "CN1C(=O)C(=Cc2ccccc2OCc2ccccc2Cl)C(=O)N(C)C1=O", "hERG current change (%, negative = inhibition) at 10uM": 12.6}
{"smiles": "Cc1ccc(N=C2C(=O)Nc3ccccc32)cc1C", "hERG current change (%, negative = inhibition) at 10uM": 7.9}
{"smiles": "Cc1sc2nc(SCC(=O)Nc3ccc(S(=O)(=O)NCCCC(=O)O)cc3)[nH]c(=O)c2c1C", "hERG current change (%, negative = inhibition) at 10uM": 19.6}
{"smiles": "CCOc1ccc(S(=O)(=O)Nc2cc(SCC(=O)O)c(O)c3ccccc23)cc1", "hERG current change (%, negative = inhibition) at 10uM": -0.126}
{"smiles": "O=C(O)c1ccc(-n2cccc2/C=C2/NC(=O)N(c3ccccc3)C2=O)cc1", "hERG current change (%, negative = inhibition) at 10uM": 5.15}
{"smiles": "COC(=O)C[C@H]1c2ccccc2S(=O)(=O)N1Cc1ccc(OC)cc1", "hERG current change (%, negative = inhibition) at 10uM": 9.61}
{"smiles": "Cc1noc(C)c1S(=O)(=O)N1CCC(C(=O)N2CCN(C(=O)c3ccco3)CC2)CC1", "hERG current change (%, negative = inhibition) at 10uM": 11.2}
{"smiles": "O=C(CSc1nnnn1-c1ccc(O)cc1)NC1CCCCC1", "hERG current change (%, negative = inhibition) at 10uM": 1.35}
{"smiles": "CCOc1ccc2nc(NCCNC(=O)C(C)(C)C)c(C)cc2c1", "hERG current change (%, negative = inhibition) at 10uM": -46.1}
{"smiles": "CCC(C(=O)Nc1ccccc1F)n1nc(C)c2c(C)n(-c3ccccc3)nc2c1=O", "note": "(stereo not drawn)", "hERG current change (%, negative = inhibition) at 10uM": -21.6}
{"smiles": "CCN1CCN(c2cc(C)c3cc(NC(=O)c4ccc(Br)o4)ccc3n2)CC1", "hERG current change (%, negative = inhibition) at 10uM": -56}
{"smiles": "CN(C)CCCNc1oc(-c2ccccc2)nc1C#N", "hERG current change (%, negative = inhibition) at 10uM": -0.779}
{"smiles": "CCN(CC)CCN(Cc1cc2cc3c(cc2[nH]c1=O)OCCO3)C(=S)NCC(C)C", "hERG current change (%, negative = inhibition) at 10uM": -4.96}
{"smiles": "COc1ccc(Cl)cc1S(=O)(=O)N1CCN=C1Cc1ccccc1", "hERG current change (%, negative = inhibition) at 10uM": -18.9}
{"smiles": "COCCNC(=S)N/N=C/c1ccc(-c2ccc([N+](=O)[O-])cc2)o1", "hERG current change (%, negative = inhibition) at 10uM": 16.5}
{"smiles": "CCCn1ncc(CN2CCCC(C(=O)c3cccc(OC(C)C)c3)C2)c1C", "note": "(stereo not drawn)", "hERG current change (%, negative = inhibition) at 10uM": -48.8}
{"smiles": "CCOc1ccc(NC(=O)CC2C(=O)N(CC)C(=S)N2NC(=O)c2ccncc2)cc1", "note": "(stereo not drawn)", "hERG current change (%, negative = inhibition) at 10uM": 0.596}
{"smiles": "CC(C)(C)Nc1nc(OCC(F)(F)F)nc(OCC(F)(F)F)n1", "hERG current change (%, negative = inhibition) at 10uM": -26.4}
{"smiles": "O=C(Nc1ccc2c(c1)OCO2)c1c[nH]c(=O)n(-c2ccc(F)cc2)c1=O", "hERG current change (%, negative = inhibition) at 10uM": 15.8}
{"smiles": "Cc1ccc(NC(=O)CN2CCc3cc4c(cc3C2)OCCCO4)cc1C", "hERG current change (%, negative = inhibition) at 10uM": 6.47}
{"smiles": "COc1ccc(CNCc2ccc(C)cc2)c(OC)c1.O=C(O)C(=O)O", "hERG current change (%, negative = inhibition) at 10uM": -31.3}
{"smiles": "CCOC(=O)/C(=C/c1ccc(F)cc1)NC(C)=O", "hERG current change (%, negative = inhibition) at 10uM": -7.91}
{"smiles": "CN(C)C(=O)Oc1ccc(NC(=O)N2CCOCC2)cc1", "hERG current change (%, negative = inhibition) at 10uM": 12.1}
